The results in this text go back to the supplement of paper PMC7125110.

First the molecules themselves.
B1: glmS ribozyme (parent)
chain: AUAAAAGCGCCAGAACUACAGAAAUGUAGUUGACGAGGAGGAGGUUUAUCGAAUUUUCGGCGGAUGCCUCCAAA

What all share (settings): with glucosamine-6-phosphate
The variants in data set [1] derive from B1. Nature of the data set: self-cleavage kobs at 640 uM GlcN6P; higher = faster cleavage; RNA array. The method, boiled down: (§1)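 Over ~14 h at 37 °C, tiles were imaged as glucosamine-6-phosphate (40 μM to 10 mM) in HEPES/KCl/Mg(OAc)2 buffer flowed across sequenced MiSeq chips. The chips carried barcoded ribozyme variants transcribed in situ by E. coli RNA polymerase and tracked with a hybridised Cy3 probe. After normalisation to baseline and to non-cleaving reference variants, one- or two-exponential decay fits of per-tile medians gave kobs. kcat and KM followed from weighted Michaelis–Menten fits across concentrations.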

Variants of B1 are the subject of data set [2]. Nature of the data set: self-cleavage kobs at 160 uM GlcN6P; higher = faster cleavage; RNA array. A digest of the protocol:
as §1

The variants in data set [3] derive from B1. Put plainly: self-cleavage kobs at 2500 uM GlcN6P; higher = faster cleavage; RNA array. The method, boiled down:
as §1

In data set [4] the parent is B1. Put plainly: self-cleavage kobs at 40 uM GlcN6P; higher = faster cleavage; RNA array. A digest of the protocol: as §1
Variants of B1 are the subject of data set [5]. Nature of the data set: self-cleavage kobs at 10000 uM GlcN6P; higher = faster cleavage; RNA array. A digest of the protocol: as §1

± gives the standard error. This sample is rich in variants without activity. Bounds are passed on as bounds.

With G9A U65G C71G, the “self-cleavage kobs at 640 uM GlcN6P” value with glucosamine-6-phosphate [1] is less than 1e-05 s⁻¹. For the same variant, the “self-cleavage kobs at 160 uM GlcN6P” value in the data set with glucosamine-6-phosphate [2] is less than 1e-05 s⁻¹. For the same variant, the “self-cleavage kobs at 2500 uM GlcN6P” value with glucosamine-6-phosphate [3] is less than 1e-05 s⁻¹.

For G63C A64U, the “self-cleavage kobs at 40 uM GlcN6P” value with glucosamine-6-phosphate [4] was less than 1e-05 s⁻¹. For the same variant, in the data set with glucosamine-6-phosphate [1], the “self-cleavage kobs at 640 uM GlcN6P” value is less than 1e-05 s⁻¹. Besides, the “self-cleavage kobs at 2500 uM GlcN6P” value with glucosamine-6-phosphate [3] is less than 1e-05 s⁻¹.

With G9A G32C, in the data set with glucosamine-6-phosphate [1], the “self-cleavage kobs at 640 uM GlcN6P” value is less than 1e-05 s⁻¹. Also, the “self-cleavage kobs at 160 uM GlcN6P” value in the data set with glucosamine-6-phosphate [2] is less than 1e-05 s⁻¹. Moreover, in the data set with glucosamine-6-phosphate [5], the “self-cleavage kobs at 10000 uM GlcN6P” value was less than 1e-05 s⁻¹.

For the variant A42U G43C, the “self-cleavage kobs at 40 uM GlcN6P” value with glucosamine-6-phosphate [4] is less than 1e-05 s⁻¹. For the same variant, the “self-cleavage kobs at 640 uM GlcN6P” value with glucosamine-6-phosphate [1] was less than 1e-05 s⁻¹. Besides, the “self-cleavage kobs at 160 uM GlcN6P” value in the data set with glucosamine-6-phosphate [2] is less than 1e-05 s⁻¹. The “self-cleavage kobs at 2500 uM GlcN6P” value with glucosamine-6-phosphate [3] is less than 1e-05 s⁻¹.

Take G43U C61A A64G C68U: the “self-cleavage kobs at 40 uM GlcN6P” value with glucosamine-6-phosphate [4] was less than 1e-05 s⁻¹.

On to C8U A48G G62U, for which the “self-cleavage kobs at 640 uM GlcN6P” value with glucosamine-6-phosphate [1] was less than 1e-05 s⁻¹. Also, in the data set with glucosamine-6-phosphate [3], the “self-cleavage kobs at 2500 uM GlcN6P” value was less than 1e-05 s⁻¹.

For G7U C11A G43A, the “self-cleavage kobs at 640 uM GlcN6P” value in the data set with glucosamine-6-phosphate [1] was less than 1e-05 s⁻¹. The “self-cleavage kobs at 160 uM GlcN6P” value with glucosamine-6-phosphate [2] is less than 1e-05 s⁻¹.

On to A48G A53U, for which, in the data set with glucosamine-6-phosphate [4], the “self-cleavage kobs at 40 uM GlcN6P” value was less than 1e-05 s⁻¹.

Turning to G7C G40C C50U, in the data set with glucosamine-6-phosphate [1], the “self-cleavage kobs at 640 uM GlcN6P” value was less than 1e-05 s⁻¹.

Consider U57C U65A, for which, in the data set with glucosamine-6-phosphate [4], the “self-cleavage kobs at 40 uM GlcN6P” value was less than 1e-05 s⁻¹.

C8U G13U A14U: the “self-cleavage kobs at 640 uM GlcN6P” value in the data set with glucosamine-6-phosphate [1] is less than 1e-05 s⁻¹.

On to G7U U57G, for which the “self-cleavage kobs at 640 uM GlcN6P” value with glucosamine-6-phosphate [1] was less than 1e-05 s⁻¹. In addition, the “self-cleavage kobs at 160 uM GlcN6P” value with glucosamine-6-phosphate [2] is less than 1e-05 s⁻¹. The “self-cleavage kobs at 2500 uM GlcN6P” value with glucosamine-6-phosphate [3] was less than 1e-05 s⁻¹.

G9A C68A U69C: in the data set with glucosamine-6-phosphate [1], the “self-cleavage kobs at 640 uM GlcN6P” value is less than 1e-05 s⁻¹.

Regarding A6U G62U A64G, in the data set with glucosamine-6-phosphate [1], the “self-cleavage kobs at 640 uM GlcN6P” value was less than 1e-05 s⁻¹. For the same variant, in the data set with glucosamine-6-phosphate [3], the “self-cleavage kobs at 2500 uM GlcN6P” value was less than 1e-05 s⁻¹.

For the variant U45A G51U, in the data set with glucosamine-6-phosphate [4], the “self-cleavage kobs at 40 uM GlcN6P” value was less than 1e-05 s⁻¹. Also, in the data set with glucosamine-6-phosphate [2], the “self-cleavage kobs at 160 uM GlcN6P” value is less than 1e-05 s⁻¹. Further, the “self-cleavage kobs at 10000 uM GlcN6P” value with glucosamine-6-phosphate [5] was less than 1e-05 s⁻¹.

U45A G51A: the “self-cleavage kobs at 40 uM GlcN6P” value with glucosamine-6-phosphate [4] is less than 1e-05 s⁻¹. Besides, the “self-cleavage kobs at 160 uM GlcN6P” value with glucosamine-6-phosphate [2] was less than 1e-05 s⁻¹.

Regarding A6G G9U C58A, the “self-cleavage kobs at 640 uM GlcN6P” value in the data set with glucosamine-6-phosphate [1] is less than 1e-05 s⁻¹.

In the case of G60U G62C, the “self-cleavage kobs at 40 uM GlcN6P” value in the data set with glucosamine-6-phosphate [4] is less than 1e-05 s⁻¹.

Regarding A6C C16A G38A A48C, in the data set with glucosamine-6-phosphate [1], the “self-cleavage kobs at 640 uM GlcN6P” value is less than 1e-05 s⁻¹. The “self-cleavage kobs at 2500 uM GlcN6P” value with glucosamine-6-phosphate [3] was less than 1e-05 s⁻¹.

For the variant C8G G41U G60U U65G, the “self-cleavage kobs at 640 uM GlcN6P” value with glucosamine-6-phosphate [1] was less than 1e-05 s⁻¹. Besides, the “self-cleavage kobs at 160 uM GlcN6P” value in the data set with glucosamine-6-phosphate [2] was less than 1e-05 s⁻¹. In addition, the “self-cleavage kobs at 2500 uM GlcN6P” value in the data set with glucosamine-6-phosphate [3] was less than 1e-05 s⁻¹.

As to G62U C70A, in the data set with glucosamine-6-phosphate [4], the “self-cleavage kobs at 40 uM GlcN6P” value was less than 1e-05 s⁻¹.

Turning to U2C G32U G44A U47G, in the data set with glucosamine-6-phosphate [1], the “self-cleavage kobs at 640 uM GlcN6P” value was less than 1e-05 s⁻¹. Also, the “self-cleavage kobs at 2500 uM GlcN6P” value with glucosamine-6-phosphate [3] was less than 1e-05 s⁻¹.

For the variant U47C G51A C71A, in the data set with glucosamine-6-phosphate [4], the “self-cleavage kobs at 40 uM GlcN6P” value was less than 1e-05 s⁻¹. The “self-cleavage kobs at 10000 uM GlcN6P” value in the data set with glucosamine-6-phosphate [5] was less than 1e-05 s⁻¹.

For U46A U69C, the “self-cleavage kobs at 40 uM GlcN6P” value with glucosamine-6-phosphate [4] is 9.53e-05 ± 1.9e-05 s⁻¹. In addition, in the data set with glucosamine-6-phosphate [1], the “self-cleavage kobs at 640 uM GlcN6P” value worked out at 0.00073 ± 0.00012 s⁻¹. Besides, the “self-cleavage kobs at 160 uM GlcN6P” value in the data set with glucosamine-6-phosphate [2] is 0.000133 ± 2.7e-05 s⁻¹.

Consider A6U A33U U45A C71G, for which the “self-cleavage kobs at 640 uM GlcN6P” value in the data set with glucosamine-6-phosphate [1] was less than 1e-05 s⁻¹.

As for A42U G63U C68G, in the data set with glucosamine-6-phosphate [4], the “self-cleavage kobs at 40 uM GlcN6P” value is less than 1e-05 s⁻¹.

Consider G43A G63A, for which the “self-cleavage kobs at 40 uM GlcN6P” value with glucosamine-6-phosphate [4] was less than 1e-05 s⁻¹. Also, in the data set with glucosamine-6-phosphate [1], the “self-cleavage kobs at 640 uM GlcN6P” value is less than 1e-05 s⁻¹. The “self-cleavage kobs at 160 uM GlcN6P” value with glucosamine-6-phosphate [2] was less than 1e-05 s⁻¹. Moreover, the “self-cleavage kobs at 2500 uM GlcN6P” value with glucosamine-6-phosphate [3] is less than 1e-05 s⁻¹. In the data set with glucosamine-6-phosphate [5], the “self-cleavage kobs at 10000 uM GlcN6P” value was less than 1e-05 s⁻¹.

As to G7A G40U G43C U54G G66A, in the data set with glucosamine-6-phosphate [1], the “self-cleavage kobs at 640 uM GlcN6P” value is less than 1e-05 s⁻¹. Also, in the data set with glucosamine-6-phosphate [3], the “self-cleavage kobs at 2500 uM GlcN6P” value is less than 1e-05 s⁻¹.

In the case of A6U G7A C16A G43U, in the data set with glucosamine-6-phosphate [1], the “self-cleavage kobs at 640 uM GlcN6P” value is less than 1e-05 s⁻¹. For the same variant, the “self-cleavage kobs at 160 uM GlcN6P” value in the data set with glucosamine-6-phosphate [2] was less than 1e-05 s⁻¹.
